Reference: ChEMBL document CHEMBL1157539, “Thousands of chemical starting points for antimalarial lead identification” (Nature, 2010)
The full ranking holds about 13,000 compounds; the median of “IFI” is about 4, and the highest 2% start at about 17. The list shows a part of the results.

Test: GSK_TCMDC: Inhibition Frequency Index (IFI). The number of non-kinase HTS assays where a compound showed > 50 % inhibition, expressed as a percentage of the number of such assays in which the compound was tested (-0 is zero)
Format: functional
COc1ccc(-c2cccc(NC(=O)c3ccccc3)c2)cc1CN1CCCN(C)CC1 showed an IFI of 5.83%. Molecule COc1ccc(Cl)cc1NC(=O)Nc1ccnc2ccccc12 has an IFI of 2.17%. Cc1cc(N/N=C/c2cccc([N+](=O)[O-])c2)c2ccccc2n1 gave an IFI of 1.52%. With Cc1ccc(CNC(=O)[C@H](CCCN)Nc2cc(C)nc(NCC3CCCCC3)n2)cc1 the IFI was 4.88%. COc1ccc(CNCc2cccc(-c3ccc(-c4nc5cccc(C)c5[nH]4)s3)c2)cc1 showed an IFI of 10.4%. In the case of COc1cccc(NC(=O)c2ccc(NCCCN3CC(C)CC(C)C3)c([N+](=O)[O-])c2)c1 (stereo unspecified), the IFI is reported as 3.7%. c1ccc2[nH]c(-c3ccc(-c4ccc(CN5CCN(CCN6CCOCC6)CC5)cc4)cc3)nc2c1 gave an IFI of 4.23%. CCCCN1CCN(c2cc(NS(=O)(=O)c3cccc(C(=O)Nc4ccc(C(F)(F)F)cc4)c3)ccc2OC)CC1 gave an IFI of 3.55%. Molecule CC1(C)NC(N)=NC(=N)N1OCCCOc1cccc(Cl)c1 has an IFI of 4.2%. Work on O=C(NCCN1CCCC1)c1ccc(-c2ccc(-c3nc4ccccc4[nH]3)s2)cc1 yielded an IFI of 4.55%. COc1ccc(NC(=O)c2cn(-c3ccc(C(C)(C)C)cc3)nc2C)cc1N1CCN(C)CC1 showed an IFI of 8.93%. With CC(O)C1CCCCN1C(=O)c1cccc(-c2ccc(-c3nc4ccccc4[nH]3)s2)c1 (stereo unspecified) the IFI was 6.6%. O=C(NCCN1CCOCC1)c1ccc(CNC(=O)c2ccc(O)c(-c3ccc(Cl)c(Cl)c3)c2)cc1 showed an IFI of 0.74%. Work on O=C(NC1CCN(c2ccnc3cc(Cl)ccc23)C1)c1ccc(C(F)(F)F)cc1 (stereo unspecified) yielded an IFI of 12.1%. In the case of Nc1c2c(nc3ccc(NC(=O)CCCc4ccccc4)cc13)CCCC2, the IFI is reported as 8.9%. For Cc1ccc(C(=O)NC2CC2)cc1-c1ccc2c(cnn2S(=O)(=O)c2ccc(F)cc2)c1, the IFI was 2.84%. In the case of CC(C)c1cccc(OCC2CCN(c3ncc(C(=O)NC4CC4)cc3Cl)CC2)c1, the IFI is reported as 2.08%. N#Cc1cccc(Nc2nccc(NCC(O)c3ccccc3C(F)(F)F)n2)c1 (stereo unspecified) gave an IFI of 19.2%. Work on COc1cc2nc(C)nc(Nc3ccc(Oc4ccccc4)cc3)c2cc1OC yielded an IFI of 2.92%. In the case of COc1ccc2nccc([C@@H](O)CN3CCC(NCc4nc5c(OCc6ccccc6)cccc5[nH]4)CC3)c2c1, the IFI is reported as 2.94%. Molecule Cc1ccc2[nH]c(C)cc(=NN=Cc3cccc(Cl)c3)c2c1 has an IFI of 3.57%. Work on O=C(Nc1ccc2c(c1)OCO2)NC1CCN(c2ccnc(NCc3ccc(F)cc3)n2)CC1 yielded an IFI of 10.6%. Molecule COC(=O)c1cc(C(O)CNC(C)CCc2cccc(F)c2)ccc1O (stereo unspecified) has an IFI of 1.44%. CCOc1ccc(-n2nc3c(Cl)nnc(-c4ccccc4)c3c2-c2ccccc2)cc1 showed an IFI of 1.56%. For Cn1cncc1C(=O)Nc1cccc(-c2csc(-c3nc4ccccc4[nH]3)c2)c1, the IFI was 2.78%. COc1ccc2nccc([C@@H](O)CN3CCC(NCCOc4cccc(C(F)(F)F)c4Cl)CC3)c2c1 showed an IFI of 3.65%. Nc1nc(N)c2cc(NS(=O)(=O)c3ccc(-c4ccccc4)cc3)ccc2n1 showed an IFI of 4.48%. For N#Cc1cccc(C(O)CN(Cc2ccccc2)Cc2ccccc2)c1 (stereo unspecified), the IFI was 2.11%. CC[C@H](N/C(=N\c1cccc(Cl)c1Cl)Nc1ccc(C#N)cc1O)c1ccccc1 showed an IFI of 3.57%. Molecule N=c1cc(C=Cc2ccc(O)cc2)[nH]c2ccccc12 has an IFI of 1.38%. Molecule COc1ccc(CNCc2cccc(-c3ccc(-c4nc5cccc(C)c5[nH]4)cc3)c2)cc1 has an IFI of 10.5%. Molecule CCCNC[C@@H](O)[C@H](Cc1ccccc1)NC(=O)c1cc(NCC)cc(N2CCCCS2(=O)=O)c1 has an IFI of 0.74%. Work on COc1ccc2nccc([C@@H](O)CN3CCC(NC(=O)/C=C/c4cc(F)cc(NC(C)=O)c4)CC3)c2c1 yielded an IFI of 2.94%. In the case of Oc1ccc(OCc2ccccn2)cc1, the IFI is reported as 0.71%. O=C(CCc1c[nH]cn1)Nc1cccc(-c2ccc(-c3nc4cc(F)ccc4[nH]3)cc2)c1 showed an IFI of 3.48%. Molecule COCCNCc1cccc(C#Cc2cc3ncnc(Nc4ccc(OCc5cccc(F)c5)c(Cl)c4)c3s2)n1 has an IFI of 4.41%. With CCOC(=O)c1cn(CC)c2cc(N(C)CCc3ccc(OC)c(OC)c3)c(F)cc2c1=O the IFI was 0.74%. In the case of COc1ccc(-c2nc3c4ccccc4c4ccc(I)cc4c3[nH]2)cc1, the IFI is reported as 3.03%. With N=C(N)NN=CC(=O)Nc1ccc(Cl)c(C(F)(F)F)c1 the IFI was 1.5%. In the case of COc1ccc2nc(C)cc(Nc3ccc(Cl)c(Cl)c3)c2c1, the IFI is reported as 5.47%. Cc1cc(N[C@@H](CC(C)C)C(=O)NCCOc2ccccc2)nc(NCCc2ccc(F)cc2)n1 gave an IFI of 11.4%. With O=C(NC1CCN(CCC[C@]2(c3ccc(Cl)c(Cl)c3)CCCN(C(=O)c3ccccc3)C2)CC1)c1ccc(F)cc1 the IFI was 11.2%. CN(c1ccc(NC(=O)Nc2cc(C(F)(F)F)ccc2F)cc1)c1ccnc(NCCN2CCCC2)n1 gave an IFI of 3.88%. With CC(C)CCN1CCC(Oc2ccc(NC(=O)c3ccccc3)cc2Cl)CC1 the IFI was 4.84%. Molecule CC(=O)c1ccc(-c2ccc(C(=O)NCCCCN3CCC(c4ccc5c(c4O)CCCC5)CC3)cc2)cc1 has an IFI of 11.2%. For N#Cc1ccc(N2CCN(Cc3cccc(-c4cccc(-c5nc6cc(F)ccc6[nH]5)c4)c3)CC2)nc1, the IFI was 1.98%.
